Laboratory results from the supplement of paper PMC3334620.
Whole data set: some 33,000 sequences, median “E-score (-0.5 to 0.5)” near -0.054, cut for the highest 2% near 0.35. This is one part of the list.

biological target: T1, Stb5 (UniProt P38699); assay: PBM E-score (8-mer binding enrichment) (E-score (-0.5 to 0.5)); higher = stronger / more preferred TF binding; most listed sequences are background and not binding sites; conditions: protein concentration: 200 nM; construct: GST-full length
T1 sequence: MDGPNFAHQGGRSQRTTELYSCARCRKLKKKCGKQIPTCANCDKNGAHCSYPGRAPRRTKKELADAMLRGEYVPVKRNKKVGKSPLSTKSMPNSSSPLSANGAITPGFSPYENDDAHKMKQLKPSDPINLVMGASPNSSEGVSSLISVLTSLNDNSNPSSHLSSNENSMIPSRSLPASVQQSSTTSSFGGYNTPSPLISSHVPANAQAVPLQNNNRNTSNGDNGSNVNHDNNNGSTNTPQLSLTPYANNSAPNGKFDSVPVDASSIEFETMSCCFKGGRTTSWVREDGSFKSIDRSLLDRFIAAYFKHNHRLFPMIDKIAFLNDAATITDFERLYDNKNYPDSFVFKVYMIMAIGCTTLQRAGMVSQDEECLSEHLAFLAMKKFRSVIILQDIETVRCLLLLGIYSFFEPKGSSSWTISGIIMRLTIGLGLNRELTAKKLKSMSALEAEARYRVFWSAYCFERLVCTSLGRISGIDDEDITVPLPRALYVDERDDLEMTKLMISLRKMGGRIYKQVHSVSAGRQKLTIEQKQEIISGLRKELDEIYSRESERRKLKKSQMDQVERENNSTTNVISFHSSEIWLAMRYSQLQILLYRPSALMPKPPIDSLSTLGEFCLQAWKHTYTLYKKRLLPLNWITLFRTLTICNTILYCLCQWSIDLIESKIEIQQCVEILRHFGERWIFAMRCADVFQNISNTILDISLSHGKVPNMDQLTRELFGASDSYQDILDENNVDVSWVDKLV
In short: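 Yeast transcription factors, full-length or as DNA-binding domains, were expressed with a GST tag using PURExpress in vitro transcription/translation. At about 100-200 nM they were applied to universal all-10-mer Agilent arrays, double-stranded by primer extension on fresh or once-stripped slides. Fluorescent anti-GST detected bound protein, and masliner normalised the scans. E-scores for ungapped eight-base words, pooled with reverse complements, came from the Universal PBM Analysis Suite.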

| Sequence | PBM E-score |
| --- | --- |
| AGGCTCTA | -0.0942 |
| CCCATCGG | 0.274 |
| ATCGCTCC | 0.154 |
| TCAAGAGA | -0.0963 |
| CCATCCAC | -0.185 |
| TCATATCA | -0.0158 |
| ATTATCAA | -0.174 |
| CCGCAACG | 0.265 |
| AACTGATC | -0.166 |
| ATAGGGTG | -0.292 |
| GTTGGATA | 0.0344 |
| CAATTTCG | -0.11 |
| ACTAATCA | 0.0538 |
| CTGCCGAA | 0.071 |
| AATGGAAG | -0.132 |
| ACTGGCGA | -0.284 |
| CACTACCC | -0.179 |
| ACGACATC | 0.074 |
| ACACCGAG | 0.369 |
| CCTGGAAG | -0.344 |
| CAGGATCG | -0.0453 |
| CCCGGAAA | 0.0585 |

| Sequence | PBM E-score |
| --- | --- |
| ACTAGCGC | 0.102 |
| AAAGAGAG | -0.234 |
| ATCCCAGA | -0.148 |
| CCACAGAG | -0.171 |
| CCAAAACA | -0.112 |
| TCTATGAA | -0.121 |
| GGCTGCAA | -0.0454 |
| ACCTGCCA | -0.0783 |
| TGCTTCAA | -0.0863 |
| ACATTCCA | -0.144 |
| ATGTAGCG | -0.0982 |
| AGGCAGTG | -0.242 |
| ACCTCTCG | -0.343 |
| ATAGAGGA | -0.239 |
| GAGATCCC | 0.167 |
| ACCGGCCA | 0.272 |
| AGGCCGCC | 0.324 |
| GAGATAAA | 0.0862 |
| ACCTCAGA | -0.125 |
| AATGGATC | 0.0237 |
| AGTCACAT | -0.165 |
| TGTGGTAA | -0.148 |

| Sequence | PBM E-score |
| --- | --- |
| CGTTAAGA | 0.104 |
| CTCACAAC | -0.191 |
| ATCCTCGA | -0.187 |
| TAATCGGA | 0.202 |
| AACCGGAC | 0.28 |
| ACGGAAAA | 0.0613 |
| CGCGAGAG | -0.0249 |
| ATGGTCAC | -0.122 |
| CAGCAGAA | -0.134 |
| GCGTCGAA | -0.00458 |
| CCTGCGAA | -0.104 |
| CCCATCCC | -0.162 |
| CTAACTAG | -0.12 |
| ATGGCAAA | -0.0403 |
| AACATGAG | -0.0791 |
| CTACACGA | -0.0898 |
| AAACATCC | 0.227 |
| CGCATGAA | -0.0542 |
| AGAAGAAC | 0.0159 |
| AATGTATC | -0.161 |
| AGGCACAT | -0.176 |
| CACACACA | -0.242 |

| Sequence | PBM E-score |
| --- | --- |
| CAATGTAA | -0.128 |
| CAAGTGAG | -0.135 |
| AATAGAGT | -0.221 |
| TAAAACGA | -0.233 |
| ACAACCAG | -0.0834 |
| ATGTACCC | 0.0379 |
| AGCAGGGA | -0.205 |
| AAAACCGA | 0.286 |
| TCATGACA | -0.0976 |
| GAACGACC | -0.0312 |
| CCTGAAGA | -0.0667 |
| ATTAATCA | -0.00286 |
| TCCCGTCA | 0.198 |
| AATCGAGG | -0.2 |
| AATGTCTG | -0.0972 |
| CGCGATGA | 0.052 |
| CTCCACAG | -0.313 |
| ATTGATCA | -0.28 |
| AGTGACCC | -0.144 |
| CCCAAACA | -0.329 |
